# Results: article PMC4336329 (PLoS ONE, 2015)
# Screen size: about 310,000 compounds; about 14,000 (4.5%) showed an effect of 50% or more. The effect is printed as a negative number. The list shows a part of the results.
# Molecular target: human ether-à-go-go-related gene (hERG) potassium channel (human, UniProt Q12809)
# Assay: primary screen, population patch clamp on CHO cells stably expressing hERG
# 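Also: peak tail current of the secondary pulse compared with the same well before compound.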
# Sequence of human ether-à-go-go-related gene (hERG) potassium channel (Q12809 whole entry, looked up): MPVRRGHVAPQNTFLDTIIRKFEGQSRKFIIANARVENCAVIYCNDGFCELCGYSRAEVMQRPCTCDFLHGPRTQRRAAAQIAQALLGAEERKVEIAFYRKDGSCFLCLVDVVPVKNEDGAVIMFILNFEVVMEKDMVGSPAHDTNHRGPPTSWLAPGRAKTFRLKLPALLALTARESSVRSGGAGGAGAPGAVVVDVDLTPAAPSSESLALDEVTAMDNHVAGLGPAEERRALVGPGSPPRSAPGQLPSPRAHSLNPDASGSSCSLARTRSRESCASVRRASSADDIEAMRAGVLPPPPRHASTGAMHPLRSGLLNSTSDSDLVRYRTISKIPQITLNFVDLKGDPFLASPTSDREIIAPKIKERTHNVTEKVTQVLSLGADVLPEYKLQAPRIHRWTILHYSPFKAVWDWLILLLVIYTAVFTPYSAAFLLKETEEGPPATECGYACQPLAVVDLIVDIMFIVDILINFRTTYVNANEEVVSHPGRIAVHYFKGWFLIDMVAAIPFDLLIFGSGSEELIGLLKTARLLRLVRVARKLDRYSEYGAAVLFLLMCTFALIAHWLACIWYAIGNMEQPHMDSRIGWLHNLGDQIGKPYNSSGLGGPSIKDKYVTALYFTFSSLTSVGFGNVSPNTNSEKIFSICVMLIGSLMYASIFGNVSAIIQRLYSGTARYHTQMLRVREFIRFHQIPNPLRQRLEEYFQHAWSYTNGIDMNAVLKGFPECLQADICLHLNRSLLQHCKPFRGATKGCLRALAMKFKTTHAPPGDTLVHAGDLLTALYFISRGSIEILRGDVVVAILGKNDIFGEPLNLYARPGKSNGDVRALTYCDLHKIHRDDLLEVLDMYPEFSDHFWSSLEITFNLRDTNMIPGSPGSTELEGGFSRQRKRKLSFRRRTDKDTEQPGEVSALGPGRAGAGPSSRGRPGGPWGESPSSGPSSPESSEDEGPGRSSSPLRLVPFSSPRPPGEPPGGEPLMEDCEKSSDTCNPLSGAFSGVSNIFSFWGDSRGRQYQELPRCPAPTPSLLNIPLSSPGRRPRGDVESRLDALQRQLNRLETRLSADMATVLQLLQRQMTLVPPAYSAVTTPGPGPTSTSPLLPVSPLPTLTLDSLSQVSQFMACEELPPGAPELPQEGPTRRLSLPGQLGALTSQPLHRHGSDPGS
row,SMILES,"hERG current change (%, negative = inhibition) at 10uM"
1,CC(C)CCNC(=O)CCSCCC(=O)NCCC(C)C,-8.59%
2,CCn1c(C2CCN(S(=O)(=O)c3ccc(OC)cc3)CC2)n[nH]c1=S,-18%
3,CCCOc1ccc(C(=O)NC(=S)N2CCN(c3cc4c(cc3F)c(=O)c(C(=O)O)cn4CC)CC2)cc1,19.5%
4,CCOC(=O)c1cc2sccc2n1CC(=O)c1ccc2c(c1)OCCO2,-7.18%
5,CC1CN(S(=O)(=O)c2ccc(NC(=O)c3ccco3)cc2)CC(C)O1 (stereo not shown),-1.61%
6,Cc1occc1-c1nnc(SCC(=O)NC2CCC(C)CC2)o1 (stereo not shown),-16.2%
7,CCOC(=O)Cc1csc(NC(=S)NC(=O)c2cccc([N+](=O)[O-])c2)n1,-1.83%
8,CC(C)c1ccc(NC(=O)[C@@H](C)NC(=O)[C@@H]2Cc3ccccc3CN2)cc1,-29.2%
9,Cn1c(C(=O)O)c(CC(=O)N2CCC(Cc3ccccc3)CC2)c2ccccc21,-7.61%
10,Cc1cc(C)nc(NC(N)=NCCc2c[nH]c3ccccc23)n1,11.6%
11,CC(C)(C)c1nc(SCC(=O)NC2CCCC2)c2ccccc2n1,12.9%
12,CCN(CC)C(=O)Cn1cnc2sc(C)c(S(=O)(=O)N3CCC(C)CC3)c2c1=O,-7.84%
13,O=C(CN1CCN(C2CCCCC2)CC1)c1c[nH]c2ccccc12,-27.1%
14,CC[C@@H](C)[C@@H](C(=O)N1CCN(C(=O)OC(C)(C)C)CC1)n1cc(CCCCNC(=O)OC(C)(C)C)nn1,-3.8%
15,COc1ccc(N(CC(=O)Nc2cccc(N(C)S(C)(=O)=O)c2)S(=O)(=O)c2ccccc2)cc1Cl,-2.82%
16,O=C(O)CC1(CC(=O)Nc2ccc3ccccc3c2)CCCCC1,5.81%
17,COc1ccc(C)cc1S(=O)(=O)N1CCCC(C(=O)NCC2CCCO2)C1 (stereo not shown),0.85%
18,COc1ccccc1CNS(=O)(=O)c1c(C)[nH]c(C)c1C(=O)N1CCCC1,5.96%
19,CCN(c1ccccc1)S(=O)(=O)c1ccc(OC)c(NC(=O)CNCCc2ccccc2)c1.O=C(O)C(=O)O,-14.7%
20,COc1ccc(OCc2cccc(C(=O)Nc3cc(C)on3)c2)cc1,-9.84%
21,O=C(Nc1cccc2ccccc12)C12CC3CC(C1)CC(n1cnc([N+](=O)[O-])n1)(C3)C2,-44.5%
22,Cn1c(SCC(=O)NCc2ccc3c(c2)OCO3)nnc1-c1cc2ccccc2cc1O,10.1%

row,SMILES,"hERG current change (%, negative = inhibition) at 10uM"
1,Cc1ccc(NC(=O)N2CCCC(C(=O)O)C2)cc1 (stereo not shown),5.42%
2,CC(NC(=O)CC12CC3CC(CC(C3)C1)C2)C(=O)O (stereo not shown),9.99%
3,COc1ccc(C(=O)NNC(=O)COC(=O)c2sccc2C)cc1,9.39%
4,Cc1ccc(C)c(NCC(O)c2ccccc2)c1 (stereo not shown),-2.21%
5,NC(=S)NN=C1c2cc(S(=O)(=O)N3CCOCC3)ccc2-c2ccc(S(=O)(=O)N3CCOCC3)cc21,3.26%
6,CCC(CC)NC(=O)c1cccc([N+](=O)[O-])c1C,-3.15%
7,CP(=O)(Nc1ccc(Cl)cc1)c1nc2c(s1)CCCC2 (stereo not shown),-3.08%
8,O=C(NC(=S)Nc1cccc(Cl)c1N1CCCCC1)c1ccc2c(c1)OCCO2,14.8%
9,COc1ccc(CC(=O)N/N=C(\C)c2cccnc2)cc1,-4.38%
10,Cc1ccc(S(=O)(=O)CCC(=O)OC(C)C(=O)N2CCc3ccccc32)cc1 (stereo not shown),-21.2%
11,O=C1c2ccccc2C(Nc2ccc(S(=O)(=O)N3CCOCC3)cc2)N1Cc1ccco1 (stereo not shown),-48.8%
12,Cc1ccc(S(=O)(=O)N2CCN(CC(=O)N/N=C\C(Cl)=C\c3ccccc3)CC2)cc1,-48%
13,O=C(Cn1c(=O)oc2cc(S(=O)(=O)N3CCCC3)ccc21)Nc1cccc(C(F)(F)F)c1,-1.36%
14,CC1Cc2cc(/C(O)=C3/C(=O)C(=O)N(CCCn4ccnc4)C3c3ccco3)ccc2O1 (stereo not shown),14.7%
15,COc1ccc(OCC(=O)Nc2ccc(S(=O)(=O)N3CCCC3)cc2)cc1,21.5%
16,CCN(CC)S(=O)(=O)c1ccc(N2CCOCC2)c(NC(=O)Cc2cccc3ccccc23)c1,-1.03%
17,COc1ccc(-c2cc(C(=O)Nc3c(C)nn(Cc4ccccc4Cl)c3C)no2)cc1OC,-3.61%
18,Cc1nc2nc[nH]n2c(=O)c1CCOC(=O)c1ccccc1F,20.7%
19,Cc1ccc(CN2CCc3c(OCc4ccc(F)cc4)cccc3C2=O)cc1,4.43%
20,Brc1ccccc1-c1nnc(SCc2nc3ccccc3s2)o1,7.76%
21,O=C(Cn1ncc2c3ccccc3n(Cc3ccccc3)c2c1=O)NCCCN1CCOCC1,-45.2%
22,CCc1ccc(-c2nc(NC(=S)NC(=O)c3cccs3)sc2C)cc1,7.56%

row,SMILES,"hERG current change (%, negative = inhibition) at 10uM"
1,COc1ccc(C(=O)N2CCCC(Nc3ccc(C(C)C)cc3)C2)c(OC)n1 (stereo not shown),-23.4%
2,Cn1ncc(Cl)c1C(=O)NC1CCCC1,3.29%
3,CCN1CCN(CCCNC(=O)c2ccc(NC(=O)C3=C(C)OCCS3)cc2)CC1,17.6%
4,O=C(CSc1nnc(-c2ccc(OC(F)F)cc2)o1)NC(=O)NCc1ccco1,-23.2%
5,NC1=NC(c2cccnc2)n2c(nc3ccccc32)N1 (stereo not shown),18.5%
6,O=C1OC(Nc2nc(-c3ccc(F)cc3)cs2)c2ccccc21 (stereo not shown),15.4%
7,CC(C)C[C@H]1CN=C(Nc2ccccc2)N1CC1CCCCC1,-45.7%
8,CCN(C(=O)COC(=O)c1ccc(OC)c(S(=O)(=O)N2CCCc3ccccc32)c1)C1CCS(=O)(=O)C1 (stereo not shown),9.15%
9,CC1CC(C)CN(C(=O)C(C)N2CCN(S(=O)(=O)c3cccs3)CC2)C1 (stereo not shown),-7.55%
10,CN(C)CCN=Cc1c(O)n(-c2cccc(C(F)(F)F)c2)c(=O)[nH]c1=O,7.43%
11,O=C(CSc1nnc(-c2ccccc2F)o1)N1CCCC1,17.9%
12,Cc1ccc(C(=O)C(C)OC(=O)Cc2n[nH]c(=O)c3ccccc23)cc1 (stereo not shown),-19.7%
13,COCc1ccc(CN2CCCC(CO)(Cc3ccccc3C)C2)o1 (stereo not shown),2.18%
14,COc1ccccc1C(=O)NCCC(=O)NCCC12CC3CC(CC(C3)C1)C2,-25%
15,CCOc1ccc(S(=O)(=O)NCCCN2CCOCC2)c2ccccc12,-12.3%
16,Cc1c(C)c2cc(Cl)c(O)c(CN3CCCC(C)C3)c2oc1=O (stereo not shown),8.5%
17,COc1ccc(S(=O)(=O)NNC(=S)NCCc2ccccc2)c(OC)c1,3.23%
18,COc1ccc(C(=O)Nc2ccc(NC(=O)Cc3ccccc3)cn2)cc1,14.3%
19,COc1ccccc1-c1ccc(SCc2cccc(C)c2)nn1,-26.6%
20,Cc1ccc(-c2[nH]nc3c2C(c2ccc(OC(=O)N4CCOCC4)cc2)C(C#N)=C(N)O3)cc1 (stereo not shown),5.41%
21,CCOC(=O)CN(C)C(=O)CCc1nnc(-c2ccc(-c3ccccc3)cc2)o1,-22.5%
22,CCC(=O)c1ccc(OCC(=O)N(C)CC(=O)Nc2cccc(F)c2)cc1,1.21%

row,SMILES,"hERG current change (%, negative = inhibition) at 10uM"
1,O=C(Nc1cc(S(=O)(=O)N2CCCCC2)ccc1N1CCOCC1)c1ccc(C(F)(F)F)cc1,-6.5%
2,Cc1ccc(NC(=O)C2=C(C(=O)O)CCCC2)cc1F,7.33%
3,COc1ccc(CNC(=O)CN(c2cc(C)cc(C)c2)S(=O)(=O)c2c(C)noc2C)cc1,-11.1%
4,CC(C)(C)c1ccccc1NC(=O)C1=COCCO1,-11.3%
5,COc1ccc(CCNC(=O)c2ccn[nH]2)cc1OC,3.09%
6,O=C(CNC(=O)/C(=C\c1ccccc1)NC(=O)c1ccc(Br)cc1)OCc1ccccc1,-69.1%
7,O=C(COc1ccc(Cl)cc1)c1ccc(O)cc1O,-8.7%
8,COC(=O)CC1C(=O)NC2CCCCC2N1C(=O)c1ccccc1 (stereo not shown),3.2%
9,Cc1c(C)c2cc(Cl)c(O)c(CN3CCN(C)CC3)c2oc1=O,-0.384%
10,Cc1cc(C)n(-c2ccc(C(=O)N3CCN(S(=O)(=O)c4ccc(Cl)cc4)CC3)cc2)n1,-25.8%
11,O=C(O)CNC(=S)N(Cc1ccccc1Cl)C1CCCC1,16.2%
12,COC(=O)c1ccc(NC(=O)CSc2nnc(C(C)NC(=O)c3ccccc3Cl)n2C)cc1 (stereo not shown),8.51%
13,Cc1ccc2nc(Nc3ccc(C)c(C)c3)c3nncn3c2c1,14.5%
14,CCCCOc1ccc(C(C)NC(=O)C2CCCN(S(=O)(=O)CCC)C2)cc1 (stereo not shown),-0.162%
15,Cc1cnc(CN2CCc3c([nH]c4ccccc34)C2CC(C)C)[nH]1 (stereo not shown),-45.1%
16,Cc1ccc(NC(=O)COC(=O)CN2CCCCCC2=O)c(C)c1,-13.1%
17,Cc1ccc(NC(=O)CNCc2ccccn2)cc1S(=O)(=O)N(C)C,20.9%
18,O=S(=O)(c1ccc(F)cc1)N1CCc2ccccc2C1,1.03%
19,CCCCc1nc2sc3c(SCCN(C)C)ncnc3c2c2c1CCC2,10.4%
